# B1: phosphorylated SMOOTHENED (pSMO), FLAG-tagged mouse SMO […], GRK2-phosphorylated, wild type (receptor)
# chain: not shown
# modifications: GRK2/3-phosphorylated; mapped sites pS560, pS594, pT597, pS599, pS615, pS642, pT644, pT648
# B2: SMO L637C (FLAG-tagged mouse SMO […]) as used in Fig. 2b (receptor)
# chain: not shown
# B3: phosphorylated SMO L637C (pSMO L637C; FLAG-tagged mouse SMO […]) (receptor)
# chain: not shown
# modifications: GRK2/3-phosphorylated; mapped sites pS560, pS594, pT597, pS599, pS615, pS642, pT644, pT648
# B4: phosphorylated SMO S570C (FLAG-tagged mouse SMO […]) (receptor)
# chain: not shown
# modifications: GRK2/3-phosphorylated; mapped sites pS560, pS594, pT597, pS599, pS615, pS642, pT644, pT648
# B5: phosphorylated SMO A574C (FLAG-tagged mouse SMO […]) (receptor)
# chain: not shown
# modifications: GRK2/3-phosphorylated; mapped sites pS560, pS594, pT597, pS599, pS615, pS642, pT644, pT648
# What was measured:
# myristylated PKA-Cα K7C = myristylated PKA-Cα K7C (mouse, UniProt P05132, K7C, N-terminal myristylation); assay: SPR
# [1] = biological target: T1, wild-type, nonmyristylated mouse PKA-C (catalytic subunit of protein kinase A) (mouse, UniProt P05132); assay: cross-linking
# [2] = biological target: T1, wild-type, nonmyristylated mouse PKA-C …; assay: HDX-MS
# [3] = biological target: PKA-C G136C in a minimal-cysteine ((-)Cys, C199A) background (mouse, UniProt P05132, C199A | G136C); assay: cross-linking
binder,measurement,setting,value
B1,Kd,myristylated PKA-Cα K7C,0.082 µM
B2,binding result,[1],binds
B3,binding result,[2],binds
B4,binding result,[3],binds
B5,binding result,[3],binds

# From paper PMC11565934 (bioRxiv, 2024)
